# In the BET-seq Pho4 binding data (Le et al. 2018):
# Some of the results follow. Values were computed here from the reads of four pooled replicates and scatter widely.
# Molecular target: T1, Pho4 (S. cerevisiae) (UniProt P07270)
# T1 sequence: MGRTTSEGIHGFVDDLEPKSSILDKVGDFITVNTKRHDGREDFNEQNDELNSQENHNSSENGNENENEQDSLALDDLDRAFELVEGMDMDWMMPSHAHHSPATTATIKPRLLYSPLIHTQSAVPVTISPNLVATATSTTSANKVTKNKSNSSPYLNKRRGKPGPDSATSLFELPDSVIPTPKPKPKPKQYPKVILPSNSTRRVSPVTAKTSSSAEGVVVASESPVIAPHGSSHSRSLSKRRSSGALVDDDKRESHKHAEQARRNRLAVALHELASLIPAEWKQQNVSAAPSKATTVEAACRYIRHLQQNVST
# Assay: relative binding free energy (BET-seq); higher = weaker binding
# Conditions: reference: library average
row,Sequence,relative binding free energy [kcal/mol]
1,TATGTCACGTGGTAAG,-0.02
2,GTCAGCACGTGTGGCT,0.09
3,GTATGCACGTGTTAGG,0.02
4,GTGCGCACGTGGAGTA,-0.05
5,GTTGCCACGTGGTTTT,-0.19
6,GCGGGCACGTGTTGTT,-0.08
7,GTTAGCACGTGGCAGA,0.01
8,AGGTACACGTGGATGC,0.12
9,GGCTACACGTGGAGTG,0.04
10,ATACACACGTGTGGTG,-0.05
11,TGGAGCACGTGGGACG,-0.13
12,CAGGGCACGTGGGACG,-0.26
13,GTAGGCACGTGGGGTA,-0.29
14,TAGTGCACGTGTAGAA,0.1
15,CTTGGCACGTGCTATT,-0.08
16,ATGTGCACGTGTAGTG,0.03
17,ATTAACACGTGAAATG,0.21
18,GCATGCACGTGGGTGA,-0.09
19,GTGTGCACGTGCGTCG,-0.19
20,TGTCTCACGTGCGGGT,0.09
21,GTTAACACGTGCGAGT,0.19
22,AACTTCACGTGTTGTA,0.15
23,GTTAACACGTGGATTT,0.1

row,Sequence,relative binding free energy [kcal/mol]
1,ACAGGCACGTGCGGTG,-0.23
2,GTGTTCACGTGAGCTT,0.3
3,GTTGTCACGTGTATTG,0.24
4,AAAAGCACGTGGGAGG,-0.11
5,ATATTCACGTGGTCGA,0.21
6,GGTCACACGTGAGGGA,0.39
7,ATGGTCACGTGATTGG,0.28
8,GGCGGCACGTGGGTTG,-0.14
9,ATTAGCACGTGAATAT,0.06
10,TATCACACGTGTTTAT,0.12
11,ATTTGCACGTGTAAGA,0.1
12,GAGGTCACGTGGTAGC,0.15
13,GTTAGCACGTGAGAGG,0.2
14,GAAAGCACGTGAGGGT,0.34
15,TTATACACGTGTTACG,0.02
16,AGGAACACGTGGCTTG,0.05
17,GAGGGCACGTGGGTGT,-0.18
18,TTTGGCACGTGCGGGA,-0.23
19,TGAGGCACGTGTTACG,-0.19
20,GTGAGCACGTGCAGGC,0
21,ACGTTCACGTGGTGTC,0.27
22,ACTGGCACGTGGTGCG,-0.24
23,TGTCACACGTGAGTGG,0.31

row,Sequence,relative binding free energy [kcal/mol]
1,GATGTCACGTGATTAT,0.35
2,ATTTTCACGTGTGATT,0.38
3,GGTCGCACGTGCGTTG,-0.11
4,TTTGGCACGTGGCGAA,-0.15
5,TTGTCCACGTGAGTAT,0.27
6,CTTTTCACGTGGTAGA,0.23
7,TGTTCCACGTGTTAGT,0.04
8,GTTGTCACGTGCAGGT,0.12
9,CTGGTCACGTGGGGAG,0.01
10,AAGTACACGTGGGAAT,0.02
11,ATACCCACGTGGGGGT,-0.26
12,GGGGTCACGTGGTCAG,0.1
13,AAGTTCACGTGAGCGG,0.27
14,AAGTGCACGTGTAATT,0.02
15,GGTGGCACGTGTTTTG,-0.1
16,CGTTACACGTGGGTTG,-0.07
17,ATGTTCACGTGGGTAC,0.21
18,TATCACACGTGTTATG,0.39
19,TGTTTCACGTGGTATC,0.36
20,TTGGGCACGTGATTAG,-0.01
21,CCTGGCACGTGAGGGT,0.03
22,GTTCGCACGTGGGCGT,-0.07
23,ATGAGCACGTGTGTAC,0.02

row,Sequence,relative binding free energy [kcal/mol]
1,AGGCCCACGTGGGTGT,-0.34
2,TATATCACGTGTATTT,0.08
3,CTATTCACGTGTAGGG,0.18
4,GATGGCACGTGTGGCA,0.13
5,TGTTTCACGTGGTTCG,0.31
6,AAGCTCACGTGTTTGG,0.2
7,GTAGCCACGTGAGTTG,0.07
8,TCTGGCACGTGTTGCG,-0.11
9,TGGGCCACGTGGTTCA,0.01
10,GGATTCACGTGGTACG,0.4
11,TGCAGCACGTGGAGCT,-0.03
12,AGGAGCACGTGTGGTA,0.09
13,TAAAGCACGTGAAGTT,0.28
14,GGAGTCACGTGGAAAT,0.29
15,ATTCGCACGTGGGTAT,-0.25
16,GAGCTCACGTGAAGGG,0.38
17,AGATACACGTGGGCGT,-0.13
18,TTAGGCACGTGAATTT,0.26
19,GGGCTCACGTGTGATT,0.35
20,CTGTACACGTGGTATG,0.03
21,CGGGGCACGTGCGTTG,-0.2
22,AGTGACACGTGTATAG,0.08
23,CTTATCACGTGAGGTC,0.44

row,Sequence,relative binding free energy [kcal/mol]
1,TGATTCACGTGAGTAT,0.37
2,AAAATCACGTGGTGGG,0.12
3,AGTGCCACGTGTGGAG,-0.18
4,ATTTACACGTGTTTAG,0.1
5,AGAATCACGTGCGTGG,0.01
6,TTCAACACGTGTTGCT,0.07
7,TAGTTCACGTGTTCAA,0.19
8,GGTTGCACGTGGCGCT,-0.06
9,GGTAGCACGTGAGGCT,0.17
10,TGGAGCACGTGTTCGG,-0.13
11,AGTGGCACGTGTTGTG,-0.13
12,GCCGACACGTGGGGTG,-0.08
13,GATTTCACGTGTATAT,0.2
14,GTGTCCACGTGGGGAT,-0.03
15,TCATGCACGTGTGTTC,0.18
16,TGGAACACGTGGGATG,-0.05
17,GTGTTCACGTGAGCTA,0.42
18,CGGGGCACGTGTCGGT,-0.06
19,ACAAGCACGTGTTTGT,-0.02
20,TTATACACGTGGTAAG,-0.04
21,CTCGGCACGTGTGGTT,0.02
22,TTTGGCACGTGCTGGC,-0.22
23,ATTTGCACGTGCGACG,0.11
